The campaign covered roughly 110,000 compounds. About 230 (0.21%) showed an effect of 50% or more. The list shows a part of the results.
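Note: 30 min substrate incubation versus DMSO and 10 µM JCP410 controls.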

Sequence of DPAP1 (Q8IIJ9 whole entry, looked up): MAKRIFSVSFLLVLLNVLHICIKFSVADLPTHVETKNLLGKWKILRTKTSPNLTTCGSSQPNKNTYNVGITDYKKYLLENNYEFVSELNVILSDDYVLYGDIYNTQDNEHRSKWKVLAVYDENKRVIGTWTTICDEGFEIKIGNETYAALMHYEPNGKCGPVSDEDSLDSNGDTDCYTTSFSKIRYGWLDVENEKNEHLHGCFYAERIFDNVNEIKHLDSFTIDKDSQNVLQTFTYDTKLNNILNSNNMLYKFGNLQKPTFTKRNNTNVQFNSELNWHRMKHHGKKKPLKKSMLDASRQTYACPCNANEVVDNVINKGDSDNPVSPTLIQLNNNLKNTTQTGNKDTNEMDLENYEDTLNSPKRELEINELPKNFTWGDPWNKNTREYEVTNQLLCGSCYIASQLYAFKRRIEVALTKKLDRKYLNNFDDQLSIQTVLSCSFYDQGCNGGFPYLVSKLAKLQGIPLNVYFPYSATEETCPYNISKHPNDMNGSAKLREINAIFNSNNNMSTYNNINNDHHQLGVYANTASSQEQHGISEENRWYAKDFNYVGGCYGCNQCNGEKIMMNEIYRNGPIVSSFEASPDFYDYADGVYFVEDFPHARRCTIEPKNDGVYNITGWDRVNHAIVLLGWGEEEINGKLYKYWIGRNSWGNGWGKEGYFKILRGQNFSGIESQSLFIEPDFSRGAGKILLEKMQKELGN

This test has as its target DPAP1 (Plasmodium falciparum, UniProt Q8IIJ9). Put plainly: primary screen, percent inhibition; read by cleavage of a fluorogenic dipeptide substrate; higher = more effect of the substance. Also noted: species or system P. falciparum D10 trophozoite lysates; single well.
As for `Cc1ccc(S(=O)(=O)Nc2ccc(S(=O)(=O)Nc3cc(C)cc(C)c3)cc2)cc1`, the “% Inhibition @ 10 uM” value is given as -1.21%.
The result for `CCOC(=O)c1c(C)n(C)c2ccc(OCC(O)CN3C(=O)c4ccccc4S3(=O)=O)cc12` (stereo not shown) reads -1.33%.
For `Cc1ccccc1OCC(=O)Nc1ccc(S(=O)(=O)N2CCc3ccccc32)cc1` the value was -0.511%.
`COCCNC(=O)c1ccc(CSc2nc3ccncc3n2Cc2ccccc2F)cc1`: the “% Inhibition @ 10 uM” value is -0.12%.
For `c1ccc(-c2noc(C34CC5CC(CC(C5)C3)C4)n2)cc1` the value was -1.32%.
The result for `COC(=O)C1=C(O)/C(=C\c2cccc(Cl)c2)N=C1C` reads 2.05%; that for `CCOC(=O)N1CCN(Cc2nnc(-c3ccc4c(c3)OCO4)o2)CC1`, 3%.
For `Cc1c(Cl)cccc1-c1ccc(C=C2C(=O)OC(C)(C)OC2=O)o1` the value was -1.25%.
Take `Cc1ccccc1-c1nnc(SCC(=O)N2CCC(C)CC2)o1`: the “% Inhibition @ 10 uM” value is reported as 2.97%.
For `CCc1nc2sc(C(N)=O)c(N)c2cc1C` the value was 1.84%; for `COc1ccccc1NC1=C(Cl)C(=O)N(c2ccc(C)cc2)C1=O`, 1.03%; for `O=C(CN1C(=O)CSc2ncccc21)NCCN1CCOCC1`, 1.03%.
As to `COCCN1CN(Cc2ccco2)CC2=C1CC(c1ccccc1)CC2=O` (stereo not shown), the “% Inhibition @ 10 uM” value is reported as 3.54%.
The result for `CCCCNC(=O)CCN1N=C(c2ccccc2)CCC1=O` reads 3.93%.
For `CC1=C(C(=O)OCC2CCCO2)C(c2ccccc2C)CC(=O)N1` (stereo not shown) the value was -1%; for `CCOCCCNS(=O)(=O)c1c(C)nc2scc(C)n2c1=O`, -2.7%.
The result for `C=C1N(C)C(=O)OC1(C)Cc1ccccc1` (stereo not shown) reads 1.11%; that for `Fc1ccc(-n2cnnn2)cc1`, 3.27%; that for `COc1ccccc1CNC(=O)COCc1cc(-c2ccc(F)cc2)on1`, -6.43%.
Regarding `Nc1oc2c(CN3CCCCCC3)c(O)ccc2c(=O)c1-c1nc2ccccc2s1`, the “% Inhibition @ 10 uM” value is listed as -4.78%.
For `CCOC(=O)C1=CN(C(C)C)C=C(C(=O)OCC)C1c1ccc(O)c(OC)c1` the value was -1.48%.
For `CCc1ccccc1NC(=O)CN(c1ccc(OC)c(Cl)c1)S(C)(=O)=O` the value was 1.89%.
The result for `CC(C)Cc1nc2ccccc2[nH]1` reads -4.02%; that for `COc1cc(CNCc2ccc(Br)cc2)cc(OC)c1OC`, -11.7%.
Consider `Cc1nn(CC(=O)NCc2ccco2)c(=O)c2cc3cc(F)ccc3n12`, for which the “% Inhibition @ 10 uM” value is on record as -1.7%.
The result for `O=C(Nc1cccnc1Cl)c1cnn2c(C(F)(F)F)cc(-c3ccc(Br)cc3)nc12` reads -3.71%.
For the molecule `COC(=O)c1c(/N=C/N(C)C)c(C#N)c2n1CCCCC2`, the “% Inhibition @ 10 uM” value came to 1.24%.
On to `Cc1[nH]c2ccccc2c1/C=C/c1nc2ccccc2c(=O)n1C`, for which the “% Inhibition @ 10 uM” value is reported as -0.641%.
Turning to `O=c1cccc2n1C[C@H]1C[C@@H]2CN(Cc2cccnc2)C1`, the “% Inhibition @ 10 uM” value is -2.48%.
As to `O=C(Cc1ccccc1)Nc1ccc2oc(-c3cccnc3)nc2c1`, the “% Inhibition @ 10 uM” value is 27.4%.
In the case of `CC12c3ccccc3C(c3ccccc31)C1C(=O)N(c3cccnc3)C(=O)C12` (stereo not shown), the “% Inhibition @ 10 uM” value is recorded as -3.26%.
For `CCOC(=O)c1cnc(-c2ccccc2)nc1NC` the value was 2.65%; for `COc1ccc(N(CC(=O)Nc2ccccc2Br)S(C)(=O)=O)cc1OC`, 3.17%; for `COc1ccccc1OCCCn1cc(C(=O)C2CC2)c2ccccc21`, 4.84%.
In the case of `O=C(Nc1cccc(C(F)(F)F)c1)/C(=C\c1cccs1)NC(=O)c1ccccc1`, the “% Inhibition @ 10 uM” value is listed as -4.76%.
The result for `CC(NC(=O)CSCc1cccc(Br)c1)c1ccccc1` (stereo not shown) reads 7.77%; that for `O=C(c1cc2c(O)nc3ccccc3c2s1)N1CCC2(CC1)OCCO2`, 1.23%; that for `COCCC/N=C/C1=C(O)c2sccc2N(Cc2ccccc2)S1(=O)=O`, 5.25%.
As for `CC1=C(C(=O)NCCN2CCN(Cc3ccccc3)CC2)C2(CCCCC2)OC1=O`, the “% Inhibition @ 10 uM” value is given as 3.19%.
The result for `CCOc1ccc(CNS(=O)(=O)c2ccc(-c3cc(C(F)(F)F)no3)s2)cc1OC` reads -5.31%.
The result for `CC12CN3CC(c4ccccc4)(CN(C1)C3c1ccc3c(c1)OCO3)C2=O` (stereo not shown) reads -3.31%; that for `CC(=O)N1CCN(Cc2ccc(Br)o2)CC1`, 3.06%.
For `CCOc1ccc(C(=O)Nc2c(C)cccc2CC)cc1` the value was -3.28%; for `CCCOc1ccc(/C=c2\sc3nc(-c4cc(OC)c(OC)c(OC)c4)nn3c2=O)cc1`, -1.18%.
As for `COc1ccc(CN2CCC(N3CCCC(C)C3)CC2)c(OC)c1` (stereo not shown), the “% Inhibition @ 10 uM” value amounted to 0.222%.
The result for `Cn1c(=O)c2c(nc3n(CCO)c(C45CC6CC(CC(C6)C4)C5)cn23)n(C)c1=O` reads 0.121%; that for `Cc1ccc(C(=O)O/N=C(\N)c2cccnc2)cc1Cl`, -1.25%.
For the molecule `O=C(Nc1ccc(-c2cn3cccnc3n2)cc1)c1ccc(Cl)cc1`, the “% Inhibition @ 10 uM” value stood at 2.01%.
For `Cc1cc(OCC(O)CN2CCCCCC2)ccc1C(C)C` (stereo not shown) the value was -3.27%.
For `COc1ccc(S(=O)(=O)N(CC(=O)NCCO)Cc2ccccc2)cc1` the value was 3.47%.
For `COC(=O)c1cc(S(=O)(=O)NCCN2CCOCC2)cn1C` the value was 5.4%; for `COc1ccc2c(CNCc3ccc(OC(C)C)cc3)c(C(=O)O)n(Cc3ccc(C)cc3)c2c1`, 0.16%.
On to `O=C(N/C(=C/c1ccc(Br)cc1)C(=O)N1CCCC1)c1ccccc1F`, for which the “% Inhibition @ 10 uM” value is given as -4.68%.
The result for `COC(=O)C1=C(C)N(CCc2ccc(OC)c(OC)c2)C(=O)/C1=C\c1ccc(O)cc1` reads -1.6%; that for `O=C(O)CC(c1ccccc1Cl)N1C(=O)c2ccccc2C1=O` (stereo not shown), -0.222%.
As to `CCc1ccc(NC(=O)c2cccnc2)cc1`, the “% Inhibition @ 10 uM” value is reported as -3.37%.
For `O=S1(=O)C2(Cl)CCC1(Cl)C(Cl)=C2Cl` the value was -3.41%.
For `CCOC(=O)/C(C#N)=C/c1c(Oc2ccc(C)cc2C)nc2ccccn2c1=O` the value was -1.43%.
Regarding `CN1CCN(C2Cc3ccc(F)cc3Sc3ccccc32)CC1` (stereo not shown), the “% Inhibition @ 10 uM” value was -3.97%.
Take `COC(=O)C1=C(N)Oc2cc(C)n(CC3CCCO3)c(=O)c2C1c1ccccc1` (stereo not shown): the “% Inhibition @ 10 uM” value is on record as -4.78%.
The result for `CC(=O)N(C)c1ccc(NC(=O)COc2ccc(C(C)(C)C)cc2)cc1` reads 0.145%; that for `CCC1CCc2c(sc(NC(=O)C3CC3)c2C(N)=O)C1` (stereo not shown), 17.4%; that for `CCN(CC)CCNC(=O)c1nc(-c2ccc(-n3cccc3)cc2)no1`, 1.84%.
The result for `COCC(C)NCc1c(F)cccc1F` (stereo not shown) reads 5.01%.

Values taken from article PMC6919601, “Identification of Plasmodium dipeptidyl aminopeptidase allosteric inhibitors by high throughput screening” (PLoS ONE, 2019).
